Experimental data: patent US20100022584A1, “Modulation of Glutamine Synthetase Activity” (priority 2006, published 2010)

Columns and labels:
[1] = biological target: T1, glutamine synthetase mutant S52A Y397V (Escherichia coli, UniProt P0A9C5, S53A/Y398V); assay: HPLC forward-reaction glutamine synthetase assay with serine protease inhibitors; assay type: biochemical, E. coli; conditions: 1 mM inhibitor, 60 min pre-incubation, vs no-inhibitor control, positive = activity increased
T1 construct: made in house; host or cells: E. coli YMC11 (glutamine synthetase auxotroph), pBluescript II SK+
T1 sequence (P0A9C5 2-469 S53A/Y398V limits assumed): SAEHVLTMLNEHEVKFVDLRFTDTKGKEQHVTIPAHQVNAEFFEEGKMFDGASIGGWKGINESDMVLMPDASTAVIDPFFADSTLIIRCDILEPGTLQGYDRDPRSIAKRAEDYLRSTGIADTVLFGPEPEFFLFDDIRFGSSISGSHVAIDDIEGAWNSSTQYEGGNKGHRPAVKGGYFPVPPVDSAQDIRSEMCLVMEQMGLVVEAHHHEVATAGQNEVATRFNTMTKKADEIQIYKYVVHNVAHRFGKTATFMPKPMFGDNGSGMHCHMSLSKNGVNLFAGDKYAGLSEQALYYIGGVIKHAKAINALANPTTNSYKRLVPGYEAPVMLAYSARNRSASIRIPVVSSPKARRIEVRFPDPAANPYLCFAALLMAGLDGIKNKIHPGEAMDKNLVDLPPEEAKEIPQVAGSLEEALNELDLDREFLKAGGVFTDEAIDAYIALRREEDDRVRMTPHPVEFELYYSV
Protocol: This assay was set up to measure glutamine synthetase activity according to the forward reaction, and measures the amount of glutamine formed from […] of L-glutamate in the presence of MnCO3-ATP (the basis of one reaction) and MgATP (the basis of a second reaction). In addition, the amount of ADP formed is also measured in a separate assay, using the same reagents.
All enzyme preparations were adjusted to the same concentration of protein, and added to the assay mixture in a volume of 50 μl. The addition of the enzyme started the reaction, which was then allowed to proceed for 1 hour. The reaction was stopped by the addition of 6 μl of a 50% solution of trichloroacetic acid. Each assay was then aliquoted into 4 HPLC vials (150 μl per vial), two of which were assayed for glutamate and glutamine using a Phenomenex Luna 5 μC18 Column on an Agilent 100 HPLC instrument. The ATP/ADP assays were run on a Chromolith Performance RP-18c column also using an Agilent 100 HPLC instrument.
As it is believed that two putative catalytic triads, similar to those in the serine proteases, are involved in the reaction mechanism of glutamine synthetase, certain of the mutants were also assayed by HPLC in the presence of the serine protease inhibitors, AEBSF and PMSF, in order to assess the effect that these inhibitors had on the enzyme. The enzymes assessed were the adenylylated WT enzyme, the deadenylylated WT enzyme, and the mutant enzymes S52A, S52A Y397V, S53A, S53A Y397V, S52A S53A and S52A S53A Y397V. The enzymes were pre-incubated for 60 minutes in the presence of 1 mM PMSF or 1 mM AEBSF. A control reaction was set up for each enzyme, which contained no inhibitor. Each enzyme was then added to assays set up as described above. The assay was allowed to proceed for 60 minutes, then stopped by the addition of […] of 50% TCA, after which they were analysed by HPLC. All assays were run in triplicate.
In addition to the γ-glutamyl transferase assays, assays were also developed to measure the rate of conversion of ATP and glutamate to ADP and glutamine by HPLC. These were set up as single assays but analysed separately for glutamate and glutamine and ATP and ADP. The conversion rates for glutamate to glutamine, in both the presence of Mn^2+ and Mg^2+ by glutamine synthetase, is referred to as the […] specific activity and is presented in μmoles/min/mg protein. The conversion rates for ATP to ADP, in both the presence of Mn^2+ and Mg^2+ by glutamine synthetase, is referred to as the ADP-based specific activity and is presented in μmoles/min/mg protein. The percentage of conversion was also calculated by dividing the glutamine-based specific activity by the ADP-based specific activity, and this value is interpreted as the ability of the enzyme to complete both steps of the reaction, i.e., glutamate to glutamine and ATP to ADP, at an equivalent level of efficiency.

[2] = biological target: T2, glutamine synthetase mutant Y397V (Escherichia coli, UniProt P0A9C5, Y398V); assay: as above; assay type: biochemical, E. coli; conditions: 1 mM inhibitor, 60 min pre-incubation, positive = activity increased
T2 construct: made in house; host or cells: E. coli YMC11 (glutamine synthetase auxotroph), pBluescript II SK+
T2 sequence (P0A9C5 2-469 Y398V limits assumed): T1 sequence (P0A9C5 2-469 S53A/Y398V limits assumed) with A52S

[3] = Mg assay, ADP-based specific activity
[4] = Mg assay, glutamine-based specific activity
[5] = Mn assay, ADP-based specific activity
[6] = Mn assay, glutamine-based specific activity

Row | SMILES | % Change in Specific Activity [1, 3] | % Change in Specific Activity [1, 4] | % Change in Specific Activity [1, 5] | % Change in Specific Activity [1, 6] | % change in specific activity vs no-inhibitor control [2, 3] | % change in specific activity vs no-inhibitor control [2, 4] | % change in specific activity vs no-inhibitor control [2, 5] | % change in specific activity vs no-inhibitor control [2, 6]
1 | NCCc1ccc(S(=O)(=O)F)cc1 [AEBSF] | −100.00% | +1.95% | −16.65% | −11.57% | −43.37% | −10.83% | −20.13% | −4.98%
2 | O=S(=O)(F)Cc1ccccc1 [PMSF] | +73.28% | −77.41% | −15.50% | −29.12% | −4.88% | −31.39% | −17.58% | −44.47%

Positions count from the first letter of the chain named. Some values that stand alone complete this part of the results.
